Measurements: the supplement of paper PMC3334620
In all, about 33,000 sequences were measured (“E-score (-0.5 to 0.5)”: median about -0.054, highest 2% from about 0.35 on). The list shows a part of the results.

Target: T1, Stb5 (UniProt P38699)
T1 sequence: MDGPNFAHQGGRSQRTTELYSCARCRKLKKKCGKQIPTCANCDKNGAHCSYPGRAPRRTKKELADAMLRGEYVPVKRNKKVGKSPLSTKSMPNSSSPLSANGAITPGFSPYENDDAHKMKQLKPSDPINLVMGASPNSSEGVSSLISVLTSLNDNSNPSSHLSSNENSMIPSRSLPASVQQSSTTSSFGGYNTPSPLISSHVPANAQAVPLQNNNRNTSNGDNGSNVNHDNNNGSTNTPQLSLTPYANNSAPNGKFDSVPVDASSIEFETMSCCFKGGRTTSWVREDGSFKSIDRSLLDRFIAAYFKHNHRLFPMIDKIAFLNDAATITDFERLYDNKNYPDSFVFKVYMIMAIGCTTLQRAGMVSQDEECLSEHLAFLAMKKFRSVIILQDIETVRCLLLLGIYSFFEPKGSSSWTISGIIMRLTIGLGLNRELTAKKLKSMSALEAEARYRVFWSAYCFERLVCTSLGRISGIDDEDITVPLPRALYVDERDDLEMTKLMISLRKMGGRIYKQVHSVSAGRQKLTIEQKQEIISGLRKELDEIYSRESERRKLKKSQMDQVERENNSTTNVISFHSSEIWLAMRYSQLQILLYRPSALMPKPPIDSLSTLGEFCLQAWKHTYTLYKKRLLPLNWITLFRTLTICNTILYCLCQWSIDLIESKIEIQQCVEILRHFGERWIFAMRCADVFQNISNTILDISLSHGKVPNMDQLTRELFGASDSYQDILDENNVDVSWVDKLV
Test: PBM E-score (8-mer binding enrichment) (E-score (-0.5 to 0.5)); higher = stronger / more preferred TF binding; most listed sequences are background and not binding sites
Details: protein concentration: 200 nM; construct: GST-full length
How it was run: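 For each ungapped eight-base word taken together with its reverse complement, the Universal PBM Analysis Suite assigned an E-score. Binding data came from GST-tagged yeast transcription factors, applied at about 100-200 nM, on universal all-10-mer Agilent arrays made double-stranded by primer extension. Fluorescent anti-GST marked bound protein, and scans were normalised with masliner.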

Row | Sequence | PBM E-score
1 | AACAACGA | -0.00382
2 | CAGGGCGG | 0.308
3 | AATGACAA | -0.228
4 | AGGTCACA | -0.233
5 | GCGGTCAC | 0.243
6 | ACTAGTGG | -0.134
7 | AGTCTGTC | -0.255
8 | AGAGACGG | 0.0766
9 | AGGTGTGA | 0.00067
10 | AAGAGGGA | -0.362
11 | ATAGCAAC | -0.00788
12 | CGACGCAA | 0.11
13 | TCGCCGCA | 0.228
14 | GGGAGAAA | 0.0145
15 | GTGTATTA | -0.0519
16 | CAGGTTGC | -0.193
17 | GGCCACCC | -0.0691
18 | CCGGCTAG | 0.107
19 | AGTGCACT | -0.151
20 | AGGCTGCA | -0.26
21 | ACTGAACT | -0.204
22 | GACCTATA | 0.204
23 | GGCCGACA | 0.327
24 | GGACAGCC | -0.0341
25 | CGCAGCCC | 0.0141

Row | Sequence | PBM E-score
26 | GCGCTAGC | -0.0781
27 | AACCCTCA | -0.205
28 | CGGCTTCC | 0.0242
29 | AGCGGCCG | 0.252
30 | ATCAATCA | -0.139
31 | CGGCTGAA | -0.0353
32 | CACATTGG | -0.218
33 | GCAAGACC | 0.146
34 | CCTTCGGC | 0.134
35 | TAGGTTGA | -0.128
36 | ATCTGGAG | -0.156
37 | CCGTGTGC | 0.206
38 | ACGCTCCT | -0.172
39 | CTGTCTCC | -0.0125
40 | TACAGGTA | 0.0151
41 | AAATCACT | -0.182
42 | AGCGCATC | -0.0682
43 | TGCTGAAA | -0.0914
44 | ATGCCATG | -0.0824
45 | CATCGCGG | 0.219
46 | AGGAATAT | -0.0199
47 | ATTAGGCA | -0.0904
48 | GGCGCCCC | 0.213
49 | CGAGACGA | -0.217
50 | GCTTGCAC | 0.0293

Row | Sequence | PBM E-score
51 | CCTATCAC | 0.11
52 | AAACCGGC | 0.268
53 | GACCACGA | -0.301
54 | ACGAAGCC | -0.0925
55 | ATGACGTG | -0.198
56 | CTGTACCA | -0.202
57 | AATGCTGC | -0.169
58 | CACGCGTA | -0.193
59 | ACACTAAG | -0.184
60 | TCTATGCA | -0.198
61 | GGAAAAAC | 0.0964
62 | GTGCTAGA | -0.0615
63 | GCAGTGAC | -0.138
64 | GGCATTCA | 0.0519
65 | AACTAGAT | 0.093
66 | GACGGCGC | 0.199
67 | AGCGCAAA | -0.0953
68 | GAACATCC | 0.187
69 | CCCATACC | -0.00943
70 | CGTCCTAC | 0.0673
71 | TCCTTACA | -0.0372
72 | AGACCAGG | -0.149
73 | ATAGTAAT | -0.0555
74 | AGTTACAA | -0.00894
75 | ATCTGGAA | -0.0998

Row | Sequence | PBM E-score
76 | CAAGGGGG | -0.15
77 | CCGTACAC | 0.103
78 | AAGTGTGA | -0.211
79 | GCCACGCA | -0.0969
80 | ACCGAAAG | 0.171
81 | AGACAGCA | -0.0893
82 | CATACTCG | 0.059
83 | TACTACAA | -0.0615
84 | AAGTGTTA | -0.111
85 | ACATAAAC | 0.13
86 | AGCGGACA | 0.393
87 | AATAAACC | 0.102
88 | TCGCCAGA | -0.126
89 | ATTAACGC | 0.144
90 | CTACTCGA | -0.127
91 | TCACCGAA | 0.217
92 | AATTAGCA | 0.0295
93 | ACGTGATA | -0.232
94 | AAAAAAGA | -0.0951
95 | GTAGGATA | -0.0782
96 | ACGAGAAG | -0.15
97 | CTAGTACC | 0.226
98 | TAAGCATA | -0.101
99 | ATGAAGTC | -0.103
100 | AATCCACG | -0.0195

Row | Sequence | PBM E-score
101 | AAATGGTT | -0.126
102 | AATATAAC | 0.159
103 | CGCCCGAC | 0.33
104 | ATGGGCCA | -0.262
105 | ACACGAGA | -0.136
106 | CAGTCCAA | -0.2
107 | GTTGACCA | -0.139
108 | AAGTTACT | -0.0644
109 | CCTAGAGG | -0.339
110 | ACTATACC | 0.0747
111 | CGTACGGA | 0.159
112 | ACCCGGGC | 0.261
113 | ATAAGCAG | -0.111
114 | CGCGCGCA | 0.179
115 | ATCCTCGC | -0.0309
116 | GCACGTCC | -0.0683
117 | TGTTCTAA | -0.0306
118 | AACGGGAC | 0.176
119 | CACCCCGA | 0.325
120 | AGTCGACG | -0.026
121 | AGAGCACC | 0.0192
122 | ATTAACTC | 0.16
123 | TGGCGCAA | -0.0356
124 | GCCGTGAA | 0.0682
125 | GGTGTCTA | 0.099

Row | Sequence | PBM E-score
126 | AGGGTAGC | -0.176
127 | AGATTAAG | -0.203
128 | GGGTGAAA | 0.209
129 | AGCCGAGC | -0.0406
130 | CATGCGTC | -0.0823
131 | ATATCTCG | -0.0476
132 | GAGCGTCA | -0.0864
133 | CGGTATGA | 0.292
134 | GAGCGAAC | 0.0161
135 | TCAATACA | -0.0573
136 | GTGTGCTA | -0.0481
137 | ATAACACC | 0.461
138 | AAGAGTCA | -0.308
139 | AATGAAAG | -0.168
140 | AGCGAGTG | -0.0724
141 | CGGCGCGC | 0.275
142 | ATCCAAAC | -0.118
143 | AGATTCAC | -0.0641
144 | AACCAGCC | -0.0373
145 | TATATGGA | -0.256
146 | TACGCTAA | -0.116
147 | ACGTGTTC | -0.158
148 | CATCAGCG | 0.0718
149 | CAAAAAAA | 0.0275
150 | AGTTCCAC | -0.118

Row | Sequence | PBM E-score
151 | CCGTAGAC | 0.0866
152 | ACCTTCCT | -0.0803
153 | AACCCCTC | -0.00844
154 | CAATAACG | 0.101
155 | TCTGTGAA | -0.0739
156 | CCCGATAA | 0.216
157 | GTATTGCA | -0.049
158 | TATATTCA | -0.0799
159 | CCAAGTGG | -0.253
160 | CGCTCGGA | 0.238
161 | TAGTACCA | 0.107
162 | CAGTTATA | 0.0952
163 | CACGTACG | -0.167
164 | TGAGAGAA | -0.198
165 | AGACGGTC | 0.142
166 | GTCACAGA | -0.229
167 | ATAGCGAA | -0.231
168 | CCCTCTAA | -0.206
169 | CAACTCGC | -0.138
170 | ACCTAGAT | -0.154
171 | CGTCCGTA | 0.127
172 | CTTGTCCA | -0.301
